Results from the BET-seq Pho4 binding data (Le et al. 2018).
The list shows a part of the results. Values were computed here from the reads of four pooled replicates and scatter widely.

molecular target: T1, Pho4 (S. cerevisiae) (UniProt P07270); assay: relative binding free energy (BET-seq); higher = weaker binding; details: reference: library average
T1 sequence: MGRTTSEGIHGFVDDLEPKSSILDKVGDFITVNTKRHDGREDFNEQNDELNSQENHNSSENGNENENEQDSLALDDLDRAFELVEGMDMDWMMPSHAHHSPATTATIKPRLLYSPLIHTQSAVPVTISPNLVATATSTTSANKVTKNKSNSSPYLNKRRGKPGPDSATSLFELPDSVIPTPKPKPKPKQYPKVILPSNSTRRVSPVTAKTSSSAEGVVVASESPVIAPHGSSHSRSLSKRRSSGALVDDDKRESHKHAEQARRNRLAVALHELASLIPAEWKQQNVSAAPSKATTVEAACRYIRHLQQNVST

Row | Sequence | relative binding free energy [kcal/mol]
1 | ACTGGCACGTGGCTGG | -0.13
2 | GTTGGCACGTGTGGCC | -0.07
3 | TATTACACGTGTGGGT | 0.2
4 | GGGGTCACGTGGAATA | 0.14
5 | TGCCGCACGTGGGGGA | -0.28
6 | TATTGCACGTGATATA | 0.01
7 | TATTTCACGTGCTGAG | 0.24
8 | TGGGGCACGTGTAGAT | 0.16
9 | TGGGGCACGTGCAGCG | -0.08
10 | TATGGCACGTGACGTG | -0.01
11 | CTGTTCACGTGGCGCG | 0.31
12 | TGGAGCACGTGCATTG | -0.09
13 | GTCTTCACGTGTTTAG | 0.34
14 | GGTGTCACGTGGAAAG | 0.16
15 | GGTTTCACGTGAGTCT | 0.35
16 | GTAGGCACGTGTAGTC | 0
17 | GGTAGCACGTGCGTTT | -0.01
18 | TTGGGCACGTGTTCCT | -0.01
19 | GGTAACACGTGGGTGC | -0.04
20 | TGGGGCACGTGAGAGT | 0.19
21 | CATGGCACGTGGTATT | -0.16
22 | TGTACCACGTGGGTTG | -0.26
23 | TTGGGCACGTGATGGC | 0.09

Row | Sequence | relative binding free energy [kcal/mol]
24 | CGTGGCACGTGAAGGG | 0.15
25 | TAAGGCACGTGCGAGT | -0.15
26 | AGATTCACGTGGTGGC | 0.34
27 | AGGGGCACGTGGAGAG | -0.17
28 | AGTGTCACGTGCTGTT | 0.1
29 | GGTTGCACGTGCGTTA | -0.07
30 | TCTAGCACGTGTTTAG | -0.14
31 | GGGAACACGTGGTCGT | 0.11
32 | GAGTACACGTGTTTCG | 0.21
33 | ATGTGCACGTGGTGGG | -0.07
34 | CGACTCACGTGGTGTT | 0.19
35 | GTGTTCACGTGAAATT | 0.38
36 | TAAGTCACGTGATTTT | 0.22
37 | TATGACACGTGGTCGT | -0.15
38 | GATGTCACGTGGATGT | 0.24
39 | AGTGTCACGTGGAATT | 0.22
40 | TGTTGCACGTGCGGAT | -0.06
41 | GGTTTCACGTGATGAG | 0.5
42 | GCTTGCACGTGGGGAA | -0.11
43 | CATATCACGTGTGGGT | 0.14
44 | GTTTCCACGTGCTTGG | 0.07
45 | GCGGGCACGTGTCGCT | 0.1
46 | ATGGTCACGTGCTAGG | -0.01

Row | Sequence | relative binding free energy [kcal/mol]
47 | AAGGTCACGTGGCCTT | 0.1
48 | GAGGACACGTGGGGGT | -0.02
49 | CCGGACACGTGAGGGG | 0.15
50 | CAATGCACGTGTAGGG | -0.03
51 | AGCGTCACGTGTCGGG | 0.12
52 | TGTGCCACGTGAGTGT | -0.03
53 | GGTCGCACGTGCTTGG | -0.08
54 | TGTGTCACGTGTTGCG | 0.09
55 | GGGGGCACGTGCAAGT | 0.01
56 | TCGGGCACGTGCTGGT | -0.04
57 | CAGTACACGTGGGTGT | -0.08
58 | TGGACCACGTGGGGCA | -0.16
59 | GTTTTCACGTGGTTTC | 0.26
60 | GTCAACACGTGTTGGT | 0.08
61 | GAAGGCACGTGATTTG | 0.15
62 | GTGTTCACGTGGCTCG | 0.16
63 | CGTGCCACGTGCGGTG | 0.06
64 | GATGGCACGTGCTAGT | -0.09
65 | GGGCGCACGTGCGGCG | -0.16
66 | GTCATCACGTGGGTGT | 0.17
67 | AGATTCACGTGAGCTT | 0.37
68 | AGCTGCACGTGTGGCG | 0.05
69 | ATTCGCACGTGCTTTT | -0.08

Row | Sequence | relative binding free energy [kcal/mol]
70 | AAAGTCACGTGTGTAT | 0.21
71 | TGTCACACGTGGTCTG | -0.03
72 | ATGGGCACGTGTAGAA | -0.09
73 | AGGGACACGTGTGGGA | -0.04
74 | TGGGCCACGTGTAAAG | 0.07
75 | TTCTTCACGTGGGGTA | 0.06
76 | AGTATCACGTGGGAGT | 0.12
77 | TAGGACACGTGGGTTG | -0.03
78 | ACGGTCACGTGGGTTT | 0
79 | GGGGACACGTGGGTAA | 0
80 | TATAACACGTGGGTAG | -0.14
81 | CTGATCACGTGATTGT | 0.21
82 | TGTATCACGTGTCAAG | 0.07
83 | TTGGGCACGTGTCTTG | -0.02
84 | GTTTGCACGTGGCGGT | -0.08
85 | CTGAGCACGTGAGAGG | 0.1
86 | TGTTTCACGTGATTTG | 0.34
87 | GTGGTCACGTGCTTTG | 0.16
88 | AACGGCACGTGAGGGT | 0.09
89 | TTTTGCACGTGGTGTT | -0.04
90 | AAATACACGTGGGGCG | -0.09
91 | AGGATCACGTGCGTGT | 0.24
92 | GGATGCACGTGAGACG | 0.23

Row | Sequence | relative binding free energy [kcal/mol]
93 | CGGTGCACGTGTGCGA | -0.09
94 | GGCGTCACGTGAAAGG | 0.45
95 | GTAAACACGTGTTTTG | 0.13
96 | TTTCGCACGTGCTGGA | -0.11
97 | GGATTCACGTGCTGGG | 0.34
98 | AGAGGCACGTGGCGCG | -0.2
99 | GTGTTCACGTGGTTCA | 0.18
100 | TGCTTCACGTGCGTGA | 0.18
101 | TGCTTCACGTGACGGG | 0.23
102 | GGGGTCACGTGGTGGA | 0.09
103 | TTTAGCACGTGGTTCA | -0.08
104 | GGTTTCACGTGAAAGG | 0.48
105 | TTGCGCACGTGAGGCA | 0.15
106 | ATTGTCACGTGTTGGC | 0.24
107 | GTGAACACGTGGTGGG | 0.08
108 | TAGACCACGTGGTGGG | -0.19
109 | TTTATCACGTGTTATA | 0.12
110 | TCGGGCACGTGAAGTT | 0.24
111 | GTTGTCACGTGCAGAG | 0.04
112 | GTATACACGTGTGTTC | 0.06
113 | CAGGGCACGTGTTGAT | -0.04
114 | ATGGGCACGTGGATTC | 0.12
115 | CAGGACACGTGGAGGT | 0.1
